In PubChem BioAssay AID651820 (National Center for Advancing Translational Sciences (NCATS), 2012):
The campaign covered roughly 340,000 compounds. About 12,000 (3.5%) were called active. This list was built around the results that the source calls inconclusive (neither active nor inactive); the mix of calls is not that of the screen. The call rests on the fitted dose curve; in most records, active means well fitted inhibition curve with a large enough effect; inconclusive means small, poorly fitted or top-dose-only effect, or another doubt; inactive means no such curve, though single readings can be large or run the other way. Potencies of inconclusive entries are left out as doubtful fits.

Experiment: qHTS Assay for Inhibitors of Hepatitis C Virus (HCV)
Conditions: Huh7.5.1 HCVcc-Cre (HCVcc is cell-culture hepatitis C virus) infection, luciferase reporter, 44 h; activity change, negative = inhibition: at 41.8 µM (top of the series) unless noted
Method in brief: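 Seed cells (1,000/well) for 4 h; treat with compound and infect with HCVcc-Cre, moi about 0.5. Incubate 44 h, then detect luciferase activity.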
On the % scale 0 is the no-effect control and ±100 the full control effect; potency means the concentration at half of the fitted maximal effect; tags describe the fitted curve by direction and shape.

Structure (SMILES)	Potency	activity change, negative = inhibition
O=C(NCCc1ccccc1)C(c1cccs1)N(C(=O)CCl)c1ccc(Cl)cc1 (stereo not given)	inconclusive [inhibitor, full curve]	
O=C(Nc1cccnc1)c1c(F)c(F)c(F)c(F)c1F		inactive: -29.9%
CCC(=O)Nc1c(S(=O)(=O)c2ccccc2)c2nc3ccccc3nc2n1C(C)c1ccccc1 (stereo not given)	inconclusive [inhibitor, single point]	
COc1ccc(Cc2nc3ccc(C(=O)N(C)CCc4cnn(C)c4)cc3o2)cc1OC	inconclusive [inhibitor, partial curve, poor fit]	
Cc1ccc(OCc2cc(C(=O)N3CCN(C4CCCCC4)CC3)no2)cc1C		inactive: -26%
Cc1cccc(N2CCN(CC(O)COc3ccc(Cl)cc3)CC2)c1 (stereo not given)	inconclusive [inhibitor, single point]	
CCN(CC)CCn1c2c(c(SCC(=O)Nc3ccc(F)c(F)c3)nc1=O)CCC2	inconclusive [inhibitor, single point]	
Cc1cccc(NC(=S)N/N=C/c2c[nH]c3ccccc23)c1	active: 10 µM	
CCN(CC)CCN1c2ccccc2Sc2ccc3ccccc3c21	inconclusive [inhibitor, partial curve]	
O=C(Nc1ccc(S(=O)(=O)N2CCCCC2)cc1)C1CC(=O)N(c2ccccc2)C1 (stereo not given)		inactive: -5.94%
CCCCNC(=S)N/N=C/c1ccccc1F	inconclusive [inhibitor, single point]	
c1ccc(-c2nnc3nc(N4CCCCC4)nc(N4CCCCC4)n23)cc1	inconclusive [inhibitor, single point]	
CCOc1ccc(NS(=O)(=O)c2ccc(OCC)c3ncccc23)cc1	inconclusive [inhibitor, partial curve]	
CCN(CC)S(=O)(=O)c1cccc(-c2nnc(SCC(=O)c3cc(C)n(C)c3C)o2)c1	inconclusive [inhibitor, partial curve]	
Cc1ccc(NC(=O)NC2=N/C(=C(/C#N)C(=O)N3CCCC3)c3ccccc32)cc1	inconclusive [inhibitor, full curve, poor fit]	
CCC(C(=O)OC)n1c(-c2ccccc2)nc2ccccc2c1=O (stereo not given)	inconclusive [inhibitor, single point]	
COc1ccc(C(=O)NCCN2CCN(C(=O)c3ccc(OC)cc3)CC2)cc1	inconclusive [inhibitor, single point]	
COc1ccc(OCc2cc(C(=O)NCC(C)(C)N3CCOCC3)no2)c(Cl)c1	inconclusive [inhibitor, single point]	

Structure (SMILES)	Potency	activity change, negative = inhibition
COc1ccc(-c2nnc(NC(=O)c3ccc(S(=O)(=O)N4CCc5ccccc5C4)cc3)o2)cc1	inconclusive [inhibitor, partial curve]	
O=C(COc1ccccc1)Nc1ccccc1N1CCCCC1	inconclusive [inhibitor, partial curve]	
Cc1ccc2oc(=O)cc(CN3CCN(C/C=C/c4ccccc4)CC3)c2c1	active: 10 µM	
COc1ccc(CNc2oc(COc3ccccc3Cl)nc2C#N)cc1	inconclusive [inhibitor, single point]	
Nc1c(C(=O)c2ccccc2)oc2ccc(Br)cc12		inactive: -16.6%
COC(=O)C1=CN(c2ccc(F)cc2)C=C(C(=O)OC)C1c1cccc([N+](=O)[O-])c1	inconclusive [inhibitor, partial curve]	
CCCCC(=O)NC(c1ccccc1OC)c1ccc2cccnc2c1O (stereo not given)	active: 2.24 µM	
COc1ccc(-c2oc3ncn4nc(COc5ccccc5)nc4c3c2-c2ccc(OC)cc2)cc1	inconclusive [inhibitor, full curve, poor fit]	
CC(=O)c1sc(NC(=O)c2ccc(F)c(S(=O)(=O)N3CCOCC3)c2)nc1C	inconclusive [inhibitor, partial curve]	
CN(C(=O)CN1C(=O)S/C(=C\c2cccc(Cl)c2)C1=O)C1CCS(=O)(=O)C1 (stereo not given)		inactive: 15%
COc1cc(/C=C/C(=O)NCCc2ccc(S(N)(=O)=O)cc2)ccc1OCC#N		inactive: -4.96%
COc1cc(/C=N/NC(=S)Nc2cccc(Cl)c2C)ccc1OCC(=O)N1CC(C)OC(C)C1 (stereo not given)	active: 11.2 µM	
CC12CCC(=O)N1C(C(=O)Nc1cc(Cl)ccc1N1CCCC1)CS2 (stereo not given)	active: 8.91 µM	
CN(C(=O)Cn1nc(C(=O)O)c2ccccc2c1=O)C1(C#N)CCCCC1		inactive: 13.1%
COc1ccc(-c2nc(NC(=O)Cn3c(=O)oc4ccccc43)sc2C)cc1	inconclusive [inhibitor, single point]	
O=C1C2C3C=CC(C3)C2C(=O)N1CCCCCCN1C(=O)C2C3C=CC(C3)C2C1=O (stereo not given)	inconclusive [inhibitor, single point]	
CC(=O)c1ccc(NC(=O)/C(Cl)=C/c2ccccc2)cc1		inactive: -24.4%
